In PubChem BioAssay AID652106 (National Center for Advancing Translational Sciences (NCATS), 2013):
In all, about 370,000 compounds went through this assay and about 500 (0.14%) were called active. The shares of active, inactive and inconclusive entries below differ from those in the screen. The call rests on the fitted dose curve; in most records, active means well fitted activation curve with a large enough effect; inconclusive means small, poorly fitted or top-dose-only effect; inactive means no such curve, though single readings can be large or run the other way. Potencies of inconclusive entries are doubtful fits and often do not repeat.

Test: qHTS of alpha-syn Inhibitors; further: nearly all actives have a fitted effect of over 65% in size; on growth rescue (activation): % of control where 0% means no effect
Settings: Yeast expressing alpha-synuclein, BacTiter-Glo, 24 h; Potency: growth rescue unless noted; growth rescue (activation): at 46.1 µM (top of the series) unless noted
Summary of the method: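 Galactose-induced alpha-syn yeast (OD600=0.02, raffinose-pregrown) + pinned cpd, 24 hr, 30 deg C; growth by BacTiter-Glo luminescence. Growth restoration scores as activation.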
Potency means the concentration at half of the fitted maximal effect; tags describe the fitted curve by direction and shape.

Potency, active:
Fc1ccc(Nc2ncnc3sc4c(c23)CCC4)cc1 31.6 µM

Potency, inconclusive:
CC(C)(C)NC(=O)C(c1ccncc1)n1c(=O)c(-c2cc3ccccc3[nH]2)nc2ccccc21 (stereo not drawn) 15.8 µM [activator, single point]
Cc1cc(C(=O)N(C2CCCCC2)C2CCCCC2)no1 25.1 µM [activator, single point]
Cc1cc(=O)oc2cc(OCC(=O)N3CCN(c4ccccc4)CC3)ccc12 5.62 µM [activator, single point]
COC(=O)c1sc(S(=O)(=O)Nc2ccc(C)c(C)c2)c(C(=O)OC)c1C 15.8 µM [activator, partial curve]
CCCOc1ccc(F)cc1-c1cc(C(=O)NCc2ccco2)[nH]n1 20 µM [activator, single point]
O=c1c2cccnc2[nH]c(=S)n1Cc1ccccc1 28.2 µM [activator, single point]
COCc1cc(=O)[nH]c(/N=C(\N)Nc2ccc(C)cc2)n1 5.62 µM [activator, single point]
COc1cccc(Oc2cn[nH]c2-c2ccc(OC)cc2O)c1 14.1 µM [activator, partial curve]
CCOC(=O)c1sc2nc(C)nc(SCC(=O)N(CC)C3CCS(=O)(=O)C3)c2c1C (stereo not drawn) 3.98 µM [activator, partial curve]
CCc1ccc(S(=O)(=O)N(C(=O)c2ccncc2)c2ccc(OC(=O)c3ccncc3)cc2)cc1 2.82 µM [activator, partial curve]
CC(C)(C)[C@H]1C=C(C(=O)Nc2ccccc2)O[C@@H](OCc2ccc(CO)cc2)C1 15.8 µM [activator, single point]
CCOC(=O)C1=CCN(S(=O)(=O)c2ccccc2C)C1c1ccc(Cl)cc1 (stereo not drawn) 35.5 µM [activator, single point]
Cn1c(=O)c(=O)n(C)c2cc(S(=O)(=O)N3CCCC3C(=O)Nc3ccc(F)cc3)ccc21 (stereo not drawn) 5.62 µM [activator, single point]
CC(C)C[C@H](NC(=O)N1CC(=O)Nc2ccccc21)C(=O)N1CCC(C(=O)O)CC1 4.47 µM [activator, single point]
Cc1cccc(C(=O)OCC(=O)N(C)CC(=O)Nc2ccc(Cl)c(C(F)(F)F)c2)c1 31.6 µM [activator, single point]
CC(Oc1ccc(F)cc1)C(=O)Nc1nc(-c2ccccn2)cs1 (stereo not drawn) 3.98 µM [activator, single point]
Cn1c(=O)c2cc(NC(=O)NCc3ccccc3)ccc2n1C/C=C/c1ccccc1 5.62 µM [activator, single point]
O=C(COC(=O)c1cccnc1Cl)NC1CCCc2ccccc21 (stereo not drawn) 12.6 µM [activator, single point]
COc1ccccc1C(=O)N1c2ccccc2Sc2ccccc21 25.1 µM [activator, single point]
Cc1ccc(OCC(=O)Nn2c(C)nc3ccccc3c2=O)c(C(C)C)c1 15.8 µM [activator, single point]
Cc1ccc(-c2ccc(CN3C(C(C)C)C(=O)N(Cc4cn(CCC5OCCO5)nn4)CCS3(=O)=O)cc2)c(C)c1 (stereo not drawn) 25.1 µM [activator, single point]
CCC(C)[C@H](NS(=O)(=O)c1ccc(C)cc1)C(=O)N1CCC(C(=O)N[C@H](C(=O)O)c2ccccc2)CC1 (stereo partly drawn) 5.62 µM [activator, single point]
Clc1nnc(NC2CCCCC2)c(Cl)c1Cl 12.6 µM [activator, single point]
Cc1ccc2nc(NC(=O)CSc3nccn3Cc3ccc(F)cc3)sc2c1 31.6 µM [activator, single point]
Cc1ccc(-c2ccc(=O)n(CC(=O)N3CCN(c4cc(Cl)ccc4C)CC3)n2)cc1 17.8 µM [activator, single point]
Cc1ccc([C@H]2C[C@H](n3cc(-c4ccc(F)cc4)nn3)[C@@H](O)CN2CC2CCCCC2)cc1 3.55 µM [activator, single point]
C#CCOCCOCCOCCNc1nc(N2CCN(C(=O)[C@H](CCC(=O)O)n3cc(CN)nn3)CC2)nc(N2CCN(C(=O)[C@H](CCCN=C(N)N)n3cc(C(N)[C@@H](C)CC)nn3)CC2)n1 (stereo partly drawn) 25.1 µM [activator, single point]
CN(Cc1ccccc1)c1oc(COc2ccccc2F)nc1C#N 20 µM [activator, single point]
COc1ccc(COC(=O)C2=C(C)NC(=O)NC2c2ccc(OC)c(OC)c2)cc1 (stereo not drawn) 3.55 µM [activator, single point]
CC1CCCN(C(=O)CN2C(=O)C(C)Oc3ccccc32)C1 (stereo not drawn) 5.62 µM [activator, single point]
Cn1cnc(S(=O)(=O)N2CCCCC2c2cc(C(=O)NCc3ccc(F)cc3)no2)c1 (stereo not drawn) 3.16 µM [activator, single point]
CCCCn1c(CNC(=O)Cc2ccccc2)nc2ccccc21 31.6 µM [activator, single point]
COc1ccc(CCn2c(N)c(C(=O)NCc3ccco3)c3nc4ccccc4nc32)cc1OC 35.5 µM [activator, single point]
CCn1c(-c2ccoc2C)n[nH]c1=S 5.01 µM [activator, single point]
COc1cc(CN2CCN(C(C)C)C(CCO)C2)ccc1OCc1ccccc1 (stereo not drawn) 3.16 µM [activator, single point]
CCc1ccc(C(=O)COC(=O)CNC(=O)COc2ccccc2)cc1 20 µM [activator, single point]
O=C(NNC(=S)NC(=O)c1cccc([N+](=O)[O-])c1)c1ccc(Br)cc1 35.5 µM [activator, single point]
Oc1ccc(Cl)cc1CNc1cnc2ccccc2c1 12.6 µM [activator, single point]
C=CCCC(=O)N1C[C@H]2CCN(C)[C@H]2C[C@H]1c1ccccc1 5.62 µM [activator, single point]
Cc1ccc(NC(=O)CN(C)C(C)C(=O)N2CC(C)CC(C)C2)cc1 (stereo not drawn) 3.98 µM [activator, single point]
Cc1ccccc1-c1cc2nc(NCc3ccccc3)n(C)c(=O)c2s1 35.5 µM [activator, single point]

Growth rescue (activation), inactive:
CCOC(=O)[C@]12CCCC=C1N(Cc1ccco1)C(=O)[C@H](CC(=O)N1CCC(c3ccccc3)CC1)C2 2%
COc1ccc(NC(=O)N2c3ccc(OC)cc3C(C)=CC2(C)C)cc1 0.0777%
Cc1ccc(S(=O)(=O)c2c(N)n(CC3CCOC3)c3nc4ccccc4nc23)cc1 (stereo not drawn) -0.608%
CCOC(=O)CCSc1nc2c(c(C(F)(F)F)c1C#N)CCC2 7.61%
COc1ccc(-c2csc(NC(=O)Cc3ccccc3F)n2)cc1OC -36%
O=C(O)C1=CC[C@@H](c2ccc(Cl)cc2)N(S(=O)(=O)c2ccc(Cl)cc2)[C@H]1c1cccc(Cl)c1 1.14%
CCN(CC)C(=O)CSCc1cnn(-c2ccccc2)c1-n1cccc1 0.56%
CC(C(=O)NCc1ccccc1)N1C(=O)C2CC=C(Cl)CC2C1=O (stereo not drawn) 5.29%
CC(C)(C)/C(O)=C/c1nc2ccccc2oc1=O 2.26%
COc1cc(C#Cc2c(-c3cncn3C)n(C)c3ccc(-c4ccc(CN5CCOCC5)cc4)cc23)cc(OC)c1 -5.47%
O=C(Cc1ccc(Cl)cc1)Nc1ccc(Cl)cn1 -9.98%
O=C(Nc1ccc(Cl)cc1)c1sccc1-n1cccc1 2.05%
CCCn1c(SCC(=O)Nc2cc(Cl)ccc2Cl)n[nH]c1=O 10.2%
O=[N+]([O-])c1cc(S(=O)(=O)Nc2ccccc2)ccc1Nc1ccccc1 12.8%
CCc1sc(-c2cc3ccc(O)cc3oc2=O)nc1-c1ccc(C)cc1 4.12%
COc1ccc(C(=O)Nc2ccc(S(=O)(=O)Nc3nccnc3OC)cc2)cc1 -12.4%
CS(=O)(=O)c1ccc(C(=O)OCC(=O)NCC2CCCO2)cc1[N+](=O)[O-] (stereo not drawn) -2.25%
O=c1c2c(-c3cccs3)csc2ncn1-c1ccc(Br)cc1 -3.99%
O=C(Nc1nc(-c2ccccc2)cs1)c1cccs1 -29.7%
C=CCn1c(SCC(=O)N2CCc3ccccc3C2)nc2sc(CC)cc2c1=O -7.63%
O=C(NCC1CCCO1)C(c1cccs1)N(Cc1ccccc1)C(=O)c1ccc(-c2ccccc2)[nH]1 (stereo not drawn) 4.05%
CCc1cccc(C)c1NC(=O)CN1CCN(S(=O)(=O)c2ccc(C(C)(C)C)cc2)CC1 16.5%

Growth rescue (activation), inconclusive:
O=C(O)c1ccccc1SC1CC(=O)N(c2cccc3ccccc23)C1=O (stereo not drawn) -76.2% [activator]
COc1ccc(F)cc1S(=O)(=O)n1nnc2ccccc21 -45.4% [activator]
COc1ccc(-c2onc3ccc(C(=O)/C=C/N(C)C)cc23)cc1 -50.9% [activator]
Cc1c(C)n(O)c2ccc3nonc3c12 -40.2% [activator]
